# Experimental data: PubChem BioAssay (NCATS)
# Several values for one entry are separate records, joined by “and”; a condition that tells them apart may be missing. Identical values can stand only once. The inconclusive results got no clear call from the source; some entries with a clear call stand among them for comparison. For some assays here: A potency beside an inconclusive call is a rough fit, not a confirmed value. Activity calls are given as the source filed them. Calls follow the shape of the dose curve; as a rule, active = well fitted curve in the direction sought with a large enough effect; inconclusive = small, poorly fitted or top-dose-only effect, or another doubt; inactive = no such curve, though single readings can be large; an effect the other way counts as inactive or inconclusive.
# Columns and labels:
# [1] = test system: MKL-2; assay: qHTS assay to identify novel small-molecules to repurpose for Merkel cell carcinoma treatment (AID 1296009); settings: MCC and control cell lines, CellTiter-Glo viability, 72 h; series mostly up to 46 µM; also: nearly all actives have a fitted effect of over 60% in size
# Method in brief: (§1)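 Dose-response viability screen; 72 hr exposure at 37 degree celsius; CellTiter-Glo added, 10 min room temperature, luminescence read; RLUs scaled between no-cell and DMSO wells.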
# [2] = test system: UISO; assay: as above; settings: MCC and control cell lines, CellTiter-Glo viability, 72 h; series mostly up to 46 µM
# Method in brief: as §1
# [3] = test system: WaGa; assay: as above; settings: MCC and control cell lines, CellTiter-Glo viability, 72 h; series mostly up to 46 µM
# Method in brief: as §1
# [4] = test system: CAOV3; assay: Primary qHTS to identify gynecologic anti-cancer compounds using libraries of approved drugs and bioactive compounds (AID 1345084); settings: Gynecologic cancer cell panel viability, ATPlite luminescence, 48 h; series mostly up to 57.5 µM; also: nearly all actives have a fitted effect of over 55% in size
# Method in brief: (§2)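 48 h compound exposure at 37 C, 5% CO2; five-point qHTS. ATPlite luminescence readout of cell ATP.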
# [5] = test system: HeLa; assay: as above; settings: Gynecologic cancer cell panel viability, ATPlite luminescence, 48 h; series mostly up to 57.5 µM
# Method in brief: as §2
# Potency is read from the fitted curve at half-maximal effect; tags tell the direction and shape of the fitted curve.
compound,measurement,setting,value
O=C(O)CSCC(=O)NC1CCSC1=O (stereo unspecified),Potency,[1],inactive
O=C(CCc1ccc(O)cc1)c1c(O)cc(O)cc1O,Potency,[1],active: 4.69 µM
same,Potency,[2],"inconclusive: 23.5 µM [inhibitor, single point]"
CN(C)CC[C@H](CSc1ccccc1)Nc1ccc(S(=O)(=O)NC(=O)c2ccc(N3CCN(Cc4ccccc4-c4ccc(Cl)cc4)CC3)cc2)cc1[N+](=O)[O-],Potency,[1],active: 0.235 µM
same,Potency,[2],"inconclusive: 16.6 µM [inhibitor, partial curve]"
Cc1cnc(C(=O)O)c[n+]1[O-],Potency,[1],"inconclusive: 11.8 µM [inhibitor, single point]"
COc1ccc2c(c1)CC[C@H]1[C@@H]2CC[C@]2(C)[C@@H](NCCCCCCN3C(=O)C=CC3=O)CC[C@H]12,Potency,[1],inactive
CC(C)NCC(O)COc1ccc(COCCOC(C)C)cc1 (stereo unspecified),Potency,[1],inactive
same,Potency,[2],inactive
N#Cc1c(N(CC(=O)O)CC(=O)O)sc(C(=O)O)c1CC(=O)O,Potency,[1],"inconclusive: 7.43 µM [inhibitor, full curve]"
same,Potency,[2],inactive
COc1cccc([C@@H](C)NCCCc2ccccc2Cl)c1,Potency,[1],"inconclusive: 33.2 µM [inhibitor, single point]"
Cc1cc(-c2ccc(CC(=O)Nc3ccc(-c4cccnc4)cc3)cc2)ccn1,Potency,[1],"inconclusive: 23.5 µM [inhibitor, single point]"
same,Potency,[2],"inconclusive: 23.5 µM [inhibitor, single point]"
Cc1onc(-c2ccccc2)c1C(=O)N[C@@H]1C(=O)N2[C@@H](C(=O)O)C(C)(C)S[C@@H]12,Potency,[1],"inconclusive: 18.7 µM [inhibitor, partial curve, poor fit]"
CC1(C)CCC(CN2CCN(c3ccc(C(=O)NS(=O)(=O)c4ccc(NCC5CCOCC5)c([N+](=O)[O-])c4)c(Oc4cnc5[nH]ccc5c4)c3)CC2)=C(c2ccc(Cl)cc2)C1,Potency,[1],"inconclusive: 3.32 µM [inhibitor, full curve]"
COc1cc([C@H]2Oc3cc([C@H]4Oc5cc(O)cc(O)c5C(=O)[C@H]4O)ccc3O[C@H]2CO)ccc1O,Potency,[1],"inconclusive: 37.2 µM [inhibitor, single point]"
CC(C)N(CCCNC(=O)Nc1ccc(C(C)(C)C)cc1)C[C@H]1O[C@@H](n2cc(Br)c3c(N)ncnc32)[C@H](O)[C@H]1O,Potency,[1],inactive
same,Potency,[2],"inconclusive: 20.9 µM [inhibitor, partial curve]"
O=c1cc(O)c(Cl)c[nH]1,Potency,[1],"inactive and inconclusive: 14.8 µM [inhibitor, partial curve]"
CN1C(C(=O)Nc2ccccn2)=C(O)c2ccccc2S1(=O)=O,Potency,[1],"inconclusive: 1.48 µM [inhibitor, full curve]"
same,Potency,[2],"inconclusive: 8.33 µM [inhibitor, full curve]"
COc1ccc2c(Oc3ccc(NC(=O)c4c(C)n(CC(C)(C)O)n(-c5ccccc5)c4=O)cc3F)ccnc2c1,Potency,[1],inactive
same,Potency,[2],"inconclusive: 37.2 µM [inhibitor, partial curve, poor fit]"
C[C@]12CC[C@H](O)CC1=CCC1C2CC[C@]2(C)C(n3cnc4ccccc43)=CCC12 (stereo partly specified),Potency,[1],"inconclusive: 7.43 µM [inhibitor, full curve]"
CC1(C)O[C@H]2C[C@@H]3[C@H]4CCC5=CC(=O)C=C[C@]5(C)[C@@]4(F)[C@@H](O)C[C@]3(C)[C@]2(C(=O)CO)O1,Potency,[1],"inconclusive: 2.64 µM [inhibitor, full curve]"
O=C(O)c1ccc(-c2c[nH]c3ncc(-c4ccccc4)cc23)cc1C1CCCC1,Potency,[1],"inconclusive: 0.003 µM [inhibitor, full curve]"
same,Potency,[2],inactive
CC[C@@H]([C@H](C)O)n1ncn(-c2ccc(N3CCN(c4ccc(OCC5CO[C@@](Cn6cncn6)(c6ccc(F)cc6F)C5)cc4)CC3)cc2)c1=O (stereo partly specified),Potency,[1],inactive
COc1ccc(-c2nc(N3CCOCC3)c3sc(CN(C)c4ncc(C(=O)NO)cn4)cc3n2)cn1,Potency,[1],"inconclusive: 0.0042 µM [inhibitor, full curve, poor fit]"
same,Potency,[2],active: 0.0235 µM
same,Potency,[3],active: 2.6 nM
CC=CCC=CCCC(=O)[C@H]1O[C@@H]1C(N)=O,Potency,[1],"inconclusive: 8.33 µM [inhibitor, partial curve, poor fit]"
c1cc(-c2sc(-c3ccncc3)c(-c3ccncc3)c2-c2ccncc2)ccn1,Potency,[1],inactive
same,Potency,[2],"inconclusive: 16.6 µM [inhibitor, partial curve]"
O=C(Nc1c(Cl)cncc1Cl)c1ccc(OC(F)F)c(OCC2CC2)c1,Potency,[1],inactive
C[C@H](NC(=O)Cc1cc(F)cc(F)c1)C(=O)N[C@H](C(=O)OC(C)(C)C)c1ccccc1,Potency,[1],inactive
same,Potency,[3],inactive
CN(C)[C@@H](CCOc1cccc2ccccc12)c1ccccc1,Potency,[1],"inconclusive: 29.9 µM [inhibitor, single point] and inconclusive: 23.5 µM [inhibitor, single point]"
same,Potency,[2],"inconclusive: 18.8 µM [inhibitor, single point]"
same,Potency,[3],"inconclusive: 26.6 µM [inhibitor, single point] and inconclusive: 33.2 µM [inhibitor, single point]"
O=C(O)CCC1CCC(c2cc(F)ccc2F)(S(=O)(=O)c2ccc(Cl)cc2)CC1 (stereo unspecified),Potency,[1],"inconclusive: 1.05 µM [inhibitor, full curve]"
same,Potency,[3],"inconclusive: 1480 nM [inhibitor, full curve]"
O=C(C=Cc1cccnc1)NCCCCC1CCN(C(=O)c2ccccc2)CC1,Potency,[1],active: 0.0209 µM
same,Potency,[3],active: 16.6 nM
COCCOC(=O)C1=C(C)NC2=C(C(=O)CC(c3ccccc3OC)C2)C1c1cccc(O)c1 (stereo unspecified),Potency,[1],"inconclusive: 4.69 µM [inhibitor, full curve]"
same,Potency,[2],"inconclusive: 14.8 µM [inhibitor, partial curve]"
same,Potency,[3],"inconclusive: 26400 nM [inhibitor, single point]"
same,Potency,[4],inactive
same,Potency,[5],"inconclusive: 11.2 µM [cytotoxic, partial curve]"
Clc1ccc(C(c2ccccc2Cl)C(Cl)Cl)cc1 (stereo unspecified),Potency,[1],"inconclusive: 33.5 µM [inhibitor, single point] and inactive"
same,Potency,[2],inactive
same,Potency,[3],"inconclusive: 29.9 µM [inhibitor, single point] and inactive"
CCCC1OC2C[C@@H]3[C@H]4CCC5=CC(=O)C=C[C@]5(C)[C@H]4C(O)C[C@]3(C)[C@]2(C(=O)CO)O1 (stereo partly specified),Potency,[1],"inconclusive: 16.6 µM [inhibitor, single point]"
same,Potency,[2],inactive
same,Potency,[3],inactive
